# In the supplement of paper PMC10126150:
# Sequences with one replicate were seen in a single cluster, so their values are uncertain.
# Test system: ATP
# Experiment: switch fluorescence ratio, 500 uM ATP over buffer (Cy3 cluster intensity, sum of 5 cycles each) (fold (ratio)); higher = stronger signal-on switching upon ATP binding; sequences stand for … in TCGTCGGCAGCGTCAGATGTGTATAAGAGACAGTTTTTTTTTTTTTTTTTTTTTTTTT…TC
# Settings: aptamer strand: ATP DNA aptamer (quencher-CACCTGGGGGAGTATTGCGGAGGAAGG + anchor), 100 nM annealed; ATP concentration: 500 uM; one replicate
# Outline: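 For every switch-domain sequence, the fluorescence ratio is the mean of per-cluster values, each being summed target-cycle Cy3 intensity over summed buffer-cycle Cy3 intensity. Clusters outside 100-1000 RFU were excluded. On a modified Illumina MiSeq flow-cell, the Cy3-labelled switching-strand clusters were annealed to 100 nM quencher-labelled ATP aptamer, imaged in selection buffer and then after 15 min with 500 uM ATP at 22 °C. Five such cycles were run, with NaOH stripping and re-annealing between them.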
# 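Further: ATP exposure 15 min at 22 °C before imaging.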
row,Sequence,switch fluorescence ratio
1,CATGGATCTA,0.979
2,CGGCTTTCCT,1.03
3,TCTGTAAGTA,1.01
4,TCGTGTGTCT,1
5,TGCCTCTTTA,0.956
6,ACGAACTACG,1.31
7,AAAGGCTAA,0.947
8,GGGAAACGCT,1.02
9,AAACTTGATC,1.07
10,TTTTGCATCG,0.995
11,ATTTGTTCGG,0.989
12,TAGTGACGGG,1.01
13,TCCAATACAG,1.11
14,GCCCGTGTTA,0.974
15,GGCTATGCG,1
16,AAATTTATTC,0.985
17,GAAGGGTGTC,1.03
18,GTCCGAGAT,1.04
19,GTGCGGTCCC,0.998
20,CCAGATGGGT,1.01
21,GAGTTCGTAT,1
22,AACGAAGCCA,1.23
23,ACAGAAAAAT,0.995

row,Sequence,switch fluorescence ratio
1,GCGGGGCCGA,1.02
2,ATGTGAAGCG,0.983
3,GCCCGATGGT,1.03
4,TAAGACTGAA,0.953
5,ACTGAGACGT,1.01
6,ATAAACCACC,1.28
7,TTGCATCCCG,0.991
8,AAACACTCGG,1
9,AGTGGGTGAG,0.971
10,GGAGGAAATA,1.01
11,ATCGCGACTT,1.04
12,CAGCTTGAGC,0.983
13,CTAATTATAG,0.959
14,GCAAATTCTG,0.986
15,GGCATAGTCA,1.02
16,CTAATCTCTG,1
17,GACTCCGGCC,1.92
18,GACGTGGCAA,1.86
19,AGGATCGGGA,1.06
20,TACTTATTTA,0.993
21,GTTAGGTGAT,1.07
22,AGTGAGTTTA,1.04
23,GTGGAGATGG,1

row,Sequence,switch fluorescence ratio
1,CACACTGAGA,1.05
2,ATCTCCCTGT,1.04
3,GAGGCTTCGA,0.908
4,GGGATTACCT,1.08
5,GGTTGCCCTC,0.987
6,ACGGAAGATC,1.08
7,TTAGAATG,1.03
8,GGAGTTTAGG,1.01
9,AAAGCCGGC,1.07
10,GGAGTTCGCT,0.97
11,GCTCAGCGCT,1.08
12,TTTTAATTA,1.03
13,CCTGTCGTCG,1.01
14,CGGGCGAAGG,0.938
15,ACGAAATGA,1.15
16,CCTCGTGATG,1.69
17,TGAGACAATC,1.14
18,GTGAAGTTGT,0.933
19,CTCTTGAGGC,0.977
20,CGTTGGTCGG,0.988
21,CACCAACTGG,1.01
22,AGGAAAGGAA,0.998
23,ACAAGTTACC,1.15

row,Sequence,switch fluorescence ratio
1,TTCTATTCCA,0.99
2,CTTGCTTTTC,1
3,GGCGTACCAT,1
4,TGTATGGGTA,0.995
5,ATTCTGGTGA,1.03
6,ATGTCCATCG,0.999
7,TCGCAGCTCT,1.37
8,CATCATGGG,1.02
9,TTACACTTTA,1.08
10,CAGCGTCCAA,1
11,AGCCCGCGAA,1.17
12,TTCACGAGCT,1.03
13,TTAGAGTTTG,0.967
14,GTAATTCGAG,1.02
15,GTCGCTATTT,0.973
16,TCAGTCGCGT,0.983
17,AAGTTCCTG,0.99
18,TTGGTGTTAC,1.44
19,AGTCAACTTC,0.987
20,ACGTAGCCAG,1.01
21,GCGTTAGTT,1.03
22,AATTTCTGAT,1.03
23,ACGCTAAATG,1.13

row,Sequence,switch fluorescence ratio
1,AGTGTAGACT,0.96
2,CGGGCAGCTC,1.03
3,GGCCCCATCC,1.13
4,GTAGCCGGAG,0.928
5,CGGTATAGCG,1
6,CTGGTCTAAA,1.01
7,TCAGCCGGAG,1.03
8,GATATATAGT,0.995
9,GCAATGTAGT,1.04
10,ATGTGCCAGA,0.983
11,TGGACCGAAC,1.56
12,GAGTTTACGG,0.972
13,GCAGACGAGA,1.05
14,CGTGCTCACA,1
15,TTCTGATAAC,1.03
16,GGACTTTG,0.97
17,ATAGTAAAGA,1.01
18,ATAAGTTAAT,1
19,GTGGGAGTCG,1.02
20,CAGCTGAAAC,1.01
21,TGGAAACTTT,1.14
22,ATTAAGTCTG,0.953
23,AACCTAGATG,1.03

row,Sequence,switch fluorescence ratio
1,CTTATGGTCA,0.981
2,AGTGGCTGGT,1.12
3,ACATATCAAT,1.05
4,GACTCATGTT,0.999
5,AAGTCGTAGA,0.98
6,TAGTCTTATC,1.01
7,CTCGGCTACA,1.54
8,TCGGTGATCA,1.04
9,CTGCCACCAT,1.01
10,AAGCTTAGTA,0.979
11,CGGGACTAGG,0.961
12,ACAGTGCATC,1.03
13,TGACTTTTGG,0.952
14,ACCGGTAA,1.02
15,GCCGGTCTGG,1
16,CGATACAAGT,1.02
17,ATAGTTCACC,1
18,AGATTGCCCG,0.922
19,GGGCGTTTAT,0.992
20,AGGTAAGGTA,0.981
21,GCATGAGGAG,1.05
22,AGGGTAGTGG,0.983
23,GCTTATTATC,0.983

row,Sequence,switch fluorescence ratio
1,GACTTAGCCT,1.04
2,CGTTCTCCGG,1.12
3,GAAAGGTCGT,1.01
4,TTAGTTAGGA,1.01
5,CCGTTAAGTC,1.2
6,ACGCTAGGAC,1.67
7,GGACAGTGG,1.01
8,CCTGGGGTTA,1.09
9,GGAGGGGCTC,1.35
10,GGATCATCAC,1.01
11,TATGGAATAG,1.04
12,AAATTGAACG,1.02
13,ATTACGATTA,1.07
14,ACACCAGGAA,0.987
15,GTGGTGTGCG,0.941
16,TCGACATTTT,1.02
17,GCTCAAGTTG,0.988
18,CAGTATGATT,0.968
19,ACGGGAGTCG,1.03
